# Assay results as given in PubChem BioAssay AID588342 (National Center for Advancing Translational Sciences (NCATS), 2011).
# Values joined by “and” are separate entries in the source; they are usually repeats but may differ in a detail not shown here. Equal values may be shown once. About 25,000 (6.9%) of roughly 360,000 compounds were called active. The inconclusive results got no clear call from the source; some entries with a clear call stand among them for comparison. Calls come from the whole dose curve; as a rule, active = well fitted inhibition curve with a large enough effect; inconclusive = small, poorly fitted or top-dose-only effect; inactive = flat fitted curve, though single readings scatter. Potencies beside an inconclusive call are fits to weak or partial responses and may not hold up.
# Target: Luciferin 4-monooxygenase (Photinus pyralis) (UniProt P08659)
# Assay: qHTS profiling assay for firefly luciferase inhibitor/activator using purifed enzyme and Km concentrations of substrates (counterscreen for miR-21 project); note: nearly all actives have a fitted effect of over 55% in size;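 for activity change, negative = inhibition: plate controls were vehicle for no effect and reference inhibitor for full effect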
# Conditions: purified FLuc, luminescence inhibition; series mostly up to 57.5 µM; activity change, negative = inhibition: at the top concentration
# Procedure, shortened: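 Biochemical qHTS of compounds, final roughly 60 µM downward over six points, against 10 nM purified firefly luciferase using Km concentrations of substrates (10 uM D-luciferin, 10 uM ATP) in Tris acetate pH 7.5 buffer; luminescence output.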
# Potency is the fitted concentration of half-maximal effect; tags give direction and shape of the fitted curve.
# Chain of UniProt P08659 (P08659 whole entry, looked up): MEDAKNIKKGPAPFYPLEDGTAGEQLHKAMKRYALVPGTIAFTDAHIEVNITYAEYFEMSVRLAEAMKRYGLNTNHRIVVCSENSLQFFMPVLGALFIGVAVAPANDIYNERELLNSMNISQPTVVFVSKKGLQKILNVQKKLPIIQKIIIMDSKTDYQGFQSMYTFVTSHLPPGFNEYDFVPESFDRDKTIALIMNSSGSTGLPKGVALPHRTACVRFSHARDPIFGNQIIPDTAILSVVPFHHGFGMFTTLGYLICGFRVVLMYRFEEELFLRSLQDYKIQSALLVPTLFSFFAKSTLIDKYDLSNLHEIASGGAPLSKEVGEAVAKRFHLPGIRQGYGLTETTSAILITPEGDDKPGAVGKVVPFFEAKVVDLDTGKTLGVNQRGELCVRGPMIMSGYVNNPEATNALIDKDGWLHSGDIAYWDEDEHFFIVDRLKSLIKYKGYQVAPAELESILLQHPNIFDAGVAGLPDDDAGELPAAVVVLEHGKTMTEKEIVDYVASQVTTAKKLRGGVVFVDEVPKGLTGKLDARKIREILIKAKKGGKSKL
Structure (SMILES),Potency,"activity change, negative = inhibition"
c1csc(-c2nnc(N3CCOCC3)c3ccccc23)c1,"inconclusive: 37.9 µM [inhibitor, partial curve, poor fit]",
CCOc1ccc(N2CC(c3nc4ccccc4n3CCCOc3ccccc3OC)CC2=O)cc1 (configuration not stated),"inconclusive: 3.38 µM [inhibitor, partial curve, poor fit]",
CCC(Sc1nc(-c2cccc(OC)c2)c(C#N)c(=O)[nH]1)C(=O)Nc1nnc(C(C)C)s1 (configuration not stated),"inconclusive: 37.9 µM [inhibitor, partial curve, poor fit]",
c1ccc(OCc2nn3c(-c4ccccn4)nnc3s2)cc1,"inconclusive: 16.9 µM [inhibitor, partial curve, poor fit]",
COc1ccc2c(Sc3ccccc3)c(C(=O)NCC(C)c3ccccc3)[nH]c2c1 (configuration not stated),"inconclusive: 2.39 µM [inhibitor, full curve]",
Cc1cc(C(=O)OCC(=O)Nc2cc(Cl)ccc2C)c(C)o1,,inactive: -0.525%
CC(=O)COc1ccc2cc(-c3ccccc3)c(=O)oc2c1,"inconclusive: 9.53 µM [inhibitor, partial curve]",
Cc1cc(C)nc(NS(=O)(=O)c2ccc(NC(=O)c3ccccc3O)cc2)n1,"inconclusive: 21.3 µM [inhibitor, partial curve, poor fit]",
Cc1ccc(-c2noc(CCCc3ccccc3)n2)cc1,active: 23.9 µM,
Cc1nc(Nc2ccc(Cl)c(Cl)c2)sc1C(=O)Nc1ccccc1,"inconclusive: 26.9 µM [inhibitor, partial curve, poor fit]",
CCc1ccc(OCC(=O)O/N=C(\N)c2cccnc2)cc1,"inconclusive: 37.9 µM [inhibitor, partial curve, poor fit]",
Cc1nn(C(=O)c2ccccc2)c2c1C(=O)CC(C)(C)C2,"inconclusive: 26.9 µM [inhibitor, partial curve, poor fit]",
CCOc1ccc(C(=O)NCC2OCCc3ccccc32)cc1 (configuration not stated),active: 16.9 µM,
Cc1ccccc1NC(=O)CSc1nc(-c2ccc(F)cc2)nc2c1Cc1ccccc1O2,,inactive: -0.457%
O=C(NC(=S)Nc1ccccc1N1CCCC1)c1cccs1,"inconclusive: 37.9 µM [inhibitor, partial curve, poor fit]",
O=C(Cc1nc2ccccc2[nH]1)c1cccc([N+](=O)[O-])c1,active: 23.9 µM,
COc1ccc(N(CC(=O)Nc2ccc3c(c2)OCCO3)S(C)(=O)=O)c(OC)c1,"inconclusive: 19 µM [inhibitor, partial curve, poor fit]",
COC(=O)/C=C/c1oc2ccccc2c1C,"inconclusive: 37.9 µM [inhibitor, single point]",
Cc1ccc2nc(-c3ccc(Cl)c(NC(=O)c4ccc5c(c4)OCCO5)c3)oc2c1,active: 10.7 µM,
CC1CCc2nc3ncn(Cc4ccc(Cl)cc4)c(=O)c3cc2C1 (configuration not stated),"inconclusive: 12 µM [inhibitor, partial curve]",
CCCCOc1ccc(C(=O)Nc2ccc(S(=O)(=O)Nc3nc(C)cc(C)n3)cc2)cc1,"inconclusive: 30.1 µM [inhibitor, partial curve, poor fit]",
COc1cc(C)ccc1OCc1cc(C(=O)NC(C)Cn2cncn2)no1 (configuration not stated),"inconclusive: 2.69 µM [inhibitor, partial curve]",
Cn1nnnc1SCc1nc2ccccc2[nH]1,"inconclusive: 30.1 µM [inhibitor, partial curve, poor fit]",

Structure (SMILES),Potency,"activity change, negative = inhibition"
CCOC(=O)C1(CCc2ccccc2)CCN(C2Cc3ccccc3C2)CC1,active: 15.1 µM,
CN(C(=O)CSc1nncc2ccccc12)C1CCCCC1,"inconclusive: 21.3 µM [inhibitor, single point]",
O=C(O)c1cccc2c1-c1ccccc1/C2=N\Nc1ccccc1,active: 10.7 µM,
O=C(N/N=C/c1cc2c(cc1Cl)OCO2)c1cccc(Br)c1,"inconclusive: 15.1 µM [inhibitor, partial curve]",
Cc1ccc2nc(-c3ccc(NC(=O)COC(=O)c4ccco4)cc3)sc2c1,active: 10.7 µM,
Cc1oc(C(=O)O)cc1COc1ccc2c(C)cc(=O)oc2c1,"inconclusive: 26.9 µM [inhibitor, partial curve, poor fit]",
CCOC(=O)CSc1nc(C)c2ccccc2n1,"inconclusive: 23.9 µM [inhibitor, partial curve, poor fit]",
O=C(Nc1cccc(F)c1)N1CC=C(c2ccc(Cl)cc2)CC1,"inconclusive: 21.3 µM [inhibitor, single point]",
Cc1nnc(-c2cnn(C)c2N)n1Cc1ccc2c(c1)OCO2,"inconclusive: 26.9 µM [inhibitor, single point]",
Cc1ccc(C(=O)NC(=S)Nc2nc(-c3cccc([N+](=O)[O-])c3)cs2)c(Cl)c1,,inactive: 5.64%
Cc1c(C(=O)NCc2cccs2)oc2ccccc12,"inconclusive: 21.3 µM [inhibitor, partial curve, poor fit]",
Cc1cc(/C=C2\C(=N)N3N=C(c4ccco4)SC3=NC2=O)c(C)n1Cc1ccccc1,"inconclusive: 30.1 µM [inhibitor, single point]",
Cn1c(-c2ccc3c(c2)OCO3)cnc1NCc1ccccc1,"inconclusive: 33.8 µM [inhibitor, single point]",
CCn1c(=O)c(-c2nc3ccccc3[nH]2)c(O)c2ccccc21,"inconclusive: 4.26 µM [inhibitor, partial curve, poor fit]",
COc1ccc(OC)c(-c2nnc(-c3ccc(C)o3)o2)c1,"inconclusive: 42.6 µM [inhibitor, partial curve, poor fit]",
Cc1ccc(NC(=O)c2oc3ccc(S(=O)(=O)N4CCOCC4)cc3c2C)cc1C,,inactive: -13.3%
COc1ccccc1N=NC1C(=O)N(C(N)=S)N=C1C (configuration not stated),"inconclusive: 23.9 µM [inhibitor, partial curve, poor fit]",
Cc1nn(C(C)C(=O)Nc2ccc3c(c2)OCO3)c(C)c1[N+](=O)[O-] (configuration not stated),"inconclusive: 21.3 µM [inhibitor, partial curve, poor fit]",
Cc1cc(C)cc(NC(=O)CSc2ccc(-c3ccco3)nn2)c1,"inconclusive: 19 µM [inhibitor, partial curve]",
C/C(=N\N=C1\NC(=O)C(Cc2ccccc2)S1)c1ccccc1 (configuration not stated),"inconclusive: 37.9 µM [inhibitor, single point]",
COC(=O)/C=C\C(=O)Nc1cccc([N+](=O)[O-])c1,"inconclusive: 30.1 µM [inhibitor, partial curve, poor fit]",
Cc1onc(-c2ccccc2)c1C(=O)NC(=S)Nc1sc2c(c1C#N)CCCC2,"inconclusive: 30.1 µM [inhibitor, partial curve, poor fit]",
Oc1c(C(c2ccccc2)N2CCOCC2)sc2nc(-c3ccco3)nn12 (configuration not stated),,inactive: -2.61%

Structure (SMILES),Potency,"activity change, negative = inhibition"
COc1ccc(-c2nc(N)n[nH]2)cc1,"inconclusive: 30.1 µM [inhibitor, single point]",
COC1=C/C(=C/c2c(N)n3cc(C)sc3nc2=O)C=CC1=O,active: 3.79 µM,
O=C(CCC(=O)N/N=C/c1cc(Cl)cc(Cl)c1O)NCc1ccccc1,,inactive: -15.7%
COc1ccc2c(c1OC)C(=O)N(c1ccccc1)C2=O,"inconclusive: 23.9 µM [inhibitor, single point]",
COc1ccnc(Oc2ccc3ccccc3c2)c1C#N,"inconclusive: 12 µM [inhibitor, partial curve]",
CC(Oc1ccc(Cl)cc1Cl)C(=O)NCCCN1CCOCC1 (configuration not stated),,inactive: -0.152%
O=S(=O)([N-]c1nc2ccccc2nc1-n1cc[n+](Cc2ccccc2)c1)c1ccc(Br)cc1,,inactive: -0.588%
COc1ccc(NC(=O)COc2ccc(N(C)S(=O)(=O)c3ccc(Cl)cc3)cc2)cc1OC,,inactive: -0.19%
O=C(O)CSc1cc(C(=O)c2ccccc2O)cn2c(=O)c3c(-c4ccccc4)csc3nc12,active: 15.1 µM,
CCC(=O)N1CCN(c2ccc(NC(=O)c3cc4ccccc4o3)cc2)CC1,"inconclusive: 23.9 µM [inhibitor, partial curve, poor fit]",
CCOc1ccccc1NC(=O)Cn1ncc2c([nH]c3ccccc32)c1=O,,inactive: -0.0433%
COc1cccc(NC(=O)CN2CCC(C)CC2)c1,"inconclusive: 30.1 µM [inhibitor, partial curve, poor fit]",
COc1ccc(C)cc1Nc1ccc(C(=O)O)cc1[N+](=O)[O-],"inconclusive: 30.1 µM [inhibitor, partial curve, poor fit]",
O=C(CSC1=Nc2ccccc2C2CC=NN12)Nc1ccc(F)cc1Cl (configuration not stated),"inconclusive: 30.1 µM [inhibitor, partial curve, poor fit]",
Cc1ccccc1OCC(=O)Nc1nnc(S(=O)(=O)N2CCCC2)s1,"inactive and inconclusive: 3.01 µM [inhibitor, full curve]",
N#C/C(=C\c1ccc(-c2cccc(C(F)(F)F)c2)o1)C(=O)Nn1cnnc1,"inconclusive: 37.9 µM [inhibitor, single point]",
CCN(CC)S(=O)(=O)c1cccc(C(=O)Nc2ccc3c(c2)OCO3)c1,active: 15.1 µM,
CC(C)Oc1ccc(CNC(=O)c2ccc3c(c2)nc2n3CCCCC2)cc1,active: 9.53 µM,
Cc1ccc(C2=NS(=O)(=O)N(C)C(C(=O)NCc3ccccc3)=C2)cc1,"inconclusive: 21.3 µM [inhibitor, single point]",
Cc1sc(NC(=O)/C=C/c2ccc3c(c2)OCO3)nc1-c1ccccc1,active: 9.53 µM,
COc1ccc(OC)c(CNC(=O)c2ccc3nc(C(C)C)oc3c2)c1,,inactive: -7.33%
